Results as given in patent US11576897B2, “Therapeutic agent for non-motor symptoms associated with Parkinson's disease” (priority 2017, dated 2023).

Tests used:
human 5-HT2C receptor = human 5-HT2C receptor (Homo sapiens (Human), UniProt P28335); settings: read-out: 5-HT2C receptor binding inhibition constant Ki; [3H]-mesulergine, h-5-HT2C/CHO cell membrane
human D2L receptor = human D2L receptor (Homo sapiens (Human), UniProt P14416); assay: Dopamine D2L receptor binding test; settings: read-out: D2L receptor IC50 value; [3H]-spiperone, human D2L receptor-expressed CHO cell membrane
Chain of UniProt P14416 (P14416 whole entry): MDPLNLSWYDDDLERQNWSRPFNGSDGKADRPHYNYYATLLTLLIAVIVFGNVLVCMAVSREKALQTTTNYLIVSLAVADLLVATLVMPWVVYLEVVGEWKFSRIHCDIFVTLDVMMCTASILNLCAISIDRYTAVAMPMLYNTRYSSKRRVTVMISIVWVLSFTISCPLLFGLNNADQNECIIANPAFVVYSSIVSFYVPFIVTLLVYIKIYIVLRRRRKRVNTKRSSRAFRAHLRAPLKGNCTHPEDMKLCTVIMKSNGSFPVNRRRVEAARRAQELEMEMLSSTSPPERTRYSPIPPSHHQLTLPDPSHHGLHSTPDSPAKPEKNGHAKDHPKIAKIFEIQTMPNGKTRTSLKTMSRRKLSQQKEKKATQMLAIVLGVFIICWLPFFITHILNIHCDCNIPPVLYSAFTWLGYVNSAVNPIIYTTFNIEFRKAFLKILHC

Chain of UniProt P28335 (P28335 whole entry, looked up): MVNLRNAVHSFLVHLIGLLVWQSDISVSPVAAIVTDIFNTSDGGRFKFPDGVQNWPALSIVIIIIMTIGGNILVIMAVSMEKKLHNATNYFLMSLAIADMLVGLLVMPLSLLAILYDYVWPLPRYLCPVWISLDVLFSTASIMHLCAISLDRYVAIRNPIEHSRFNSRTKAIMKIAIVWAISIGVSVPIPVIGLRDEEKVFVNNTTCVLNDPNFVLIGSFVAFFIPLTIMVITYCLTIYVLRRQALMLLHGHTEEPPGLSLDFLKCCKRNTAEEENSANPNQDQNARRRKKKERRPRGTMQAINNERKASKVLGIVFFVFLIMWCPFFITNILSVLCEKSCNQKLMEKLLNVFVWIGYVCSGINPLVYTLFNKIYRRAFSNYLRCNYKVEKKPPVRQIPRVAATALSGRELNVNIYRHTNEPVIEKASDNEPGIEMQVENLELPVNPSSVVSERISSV

SMILES | Ki (human 5-HT2C receptor) | IC50 (human D2L receptor)
CNCc1cc(OCc2cc(F)ccc2F)n(CC2CC3CCC2C3)n1 (centres unmarked) [Example 117, 1-{1-(bicyclo[2.2.1]hept-2-ylmethyl)-5-[(2,5-difluorobenzyl)oxy]-1H-pyrazol-3-yl}-N-methylmethanamine] | 3.8 nM | 
CNCc1cc(OCc2cc(Cl)ccc2F)n(C(C)C2CCCCC2)n1 (centres unmarked) [Example 304, 1-{5-[(5-chloro-2-fluorobenzyl)oxy]-1-(1-cyclohexylethyl)-1H-pyrazol-3-yl}-N-methylmethanamine] | 2 nM | 
CNCc1cc(OCc2ccccc2)n(CC2(C)CCCCC2)n1 [Example 331, 1-{5-(benzyloxy)-1-[(1-methylcyclohexyl)methyl]-1H-pyrazol-3-yl}-N-methylmethanamine] | 5.9 nM | 
CNCc1cc(OCc2cc(F)ccc2F)n(CC2CCCC2)n1.Cl [Example 147, 1-{1-(cyclopentylmethyl)-5-[(2,5-difluorobenzyl)oxy]-1H-pyrazol-3-yl}-N-methylmethanamine] | 4.3 nM | 
CNCc1cc(OCc2ccccc2Cl)n(CC2CCCC2)n1 [Example 138, 1-{5-[(2-chlorobenzyl)oxy]-1-(cyclopentylmethyl)-1H-pyrazol-3-yl}-N-methylmethanamine] | 9.1 nM | 
CNCc1cc(OCc2ccc(F)cc2C)n(C(C)C2CCCCC2)n1 (centres unmarked) [Example 302, 1-{1-(1-cyclohexylethyl)-5-[(4-fluoro-2-methylbenzyl)oxy]-1H-pyrazol-3-yl}-N-methylmethanamine] | 5.5 nM | 
CNCc1cc(OCc2cc(F)ccc2F)n(CC2(F)CCCCC2)n1 [Example 127, 1-{5-[(2,5-difluorobenzyl)oxy]-1-[(1-fluorocyclohexyl)methyl]-1H-pyrazol-3-yl}-N-methylmethanamine] | 7 nM | 
CC(C)(C)CCn1nc(CN)cc1OCc1cc(F)ccc1F [Example 485] |  | > 1000 nM
CNCc1cc(OCc2cccc(C)c2)n(C(C)C2CCCCC2)n1 (centres unmarked) [Example 299, 1-{1-(1-cyclohexylethyl)-5-[(3-methylbenzyl)oxy]-1H-pyrazol-3-yl}-N-methylmethanamine] | 6.8 nM | 
CNCc1cc(OCc2cc(C)ccc2F)n(C(C)C2CCCCC2)n1 (centres unmarked) [Example 305, 1-{1-(1-cyclohexylethyl)-5-[(2-fluoro-5-methylbenzyl)oxy]-1H-pyrazol-3-yl}-N-methylmethanamine] | 3.7 nM | 
CNCc1cc(OCc2ccc(F)cc2C)n(CC2CCCCO2)n1 (centres unmarked) [Example 108, 1-{5-[(4-fluoro-2-methylbenzyl)oxy]-1-(tetrahydro-2H-pyran-2-ylmethyl)-1H-pyrazolo-3-yl}-N-methylmethanamine] | 18 nM | 
CNCc1cc(OCc2ccccc2F)n(C(C)C2CCCCC2)n1 (centres unmarked) [Example 293, 1-{1-(1-cyclohexylethyl)-5-[(2-fluorobenzyl)oxy]-1H-pyrazol-3-yl}-N-methylmethanamine] | 6.4 nM | 
CNCc1cc(OCc2ccccc2F)n(CC2CCCCC2)n1 [Example 20, 1-{1-(cyclohexylmethyl)-5-[(2-fluorobenzyl)oxy]-1H-pyrazol-3-yl}-N-methylmethanamine] | 9 nM | 
CNCc1cc(OCc2cccc(Cl)c2)n(CC2OC3CCC2CC3)n1 (centres unmarked) [Example 508, 1-{5-[(3-chlorobenzyl)oxy]-1-(2-oxabicyclo[2.2.2]oct-3-ylmethyl)-1H-pyrazol-3-yl}-N-methylmethanamine] | 7.7 nM | 
CNCc1cc(OCc2ccc(F)cc2Cl)n(CC2CCCCC2)n1 [Example 30, 1-{5-[(2-chloro-4-fluorobenzyl)oxy]-1-(cyclohexylmethyl)-1H-pyrazol-3-yl}-N-methylmethanamine] | 4.8 nM | 
CNCc1nn(CC2CCCCC2)c(OCc2cc(F)ccc2F)c1F [Example 351] | 43 nM | 
CNCc1cc(OCc2ccccc2C)n(C(C)C2CCCCC2)n1 (centres unmarked) [Example 298, 1-{1-(1-cyclohexylethyl)-5-[(2-methylbenzyl)oxy]-1H-pyrazol-3-yl}-N-methylmethanamine] | 6.8 nM | 
CNCc1cc(OCc2cc(F)ccc2F)n(CC2CCC(F)(F)CC2)n1 [Example 124, 1-{5-[(2,5-difluorobenzyl)oxy]-1-[(4,4-difluorocyclohexyl)methyl]-1H-pyrazol-3-yl}-N-methylmethanamine] | 16 nM | 
CNCc1cc(OCc2cc(Cl)ccc2F)n(C(C)C2CCCC2)n1 (centres unmarked) [Example 291, 1-{5-[(5-chloro-2-fluorobenzyl)oxy]-1-(1-cyclopentylethyl)-1H-pyrazol-3-yl}-N-methylmethanamine] | 4.1 nM | 
CNCc1cc(OCc2cc(F)ccc2F)n(Cc2ccc(Cl)cc2)n1 [Example 224, 1-{1-(4-chlorobenzyl)-5-[(2,5-difluorobenzyl)oxy]-1H-pyrazol-3-yl}-N-methylmethanamine] | 6.6 nM | 
CNCc1cc(OCc2ccc(F)cc2)n(C(C)C2CCCCC2)n1 (centres unmarked) [Example 295, 1-{1-(1-cyclohexylethyl)-5-[(4-fluorobenzyl)oxy]-1H-pyrazol-3-yl}-N-methylmethanamine] | 2.2 nM | 
CNCc1cc(OCc2cc(F)ccc2F)n(C(C)C2CCCCC2)n1 (centres unmarked) [Example 303, 1-{1-(1-cyclohexylethyl)-5-[(2,5-difluorobenzyl)oxy]-1H-pyrazol-3-yl}-N-methylmethanamine] | 4.7 nM | 
CNCc1cc(OCc2ccccc2C#N)n(CC2CCCC2)n1 [Example 162, 2-[({1-(cyclopentylmethyl)-3-[(methylamino)methyl]-1H-pyrazol-5-yl}oxy)methyl]benzonitrile] | 14 nM | 
CNCc1cc(OCc2cc(F)ccc2Cl)n(CC2CCCCC2)n1 [Example 37, 1-{5-[(2-chloro-5-fluorobenzyl)oxy]-1-(cyclohexylmethyl)-1H-pyrazol-3-yl}-N-methylmethanamine] | 9.2 nM | 
CNCc1cc(OCc2cc(Cl)ccc2Cl)n(CC2CCCCC2)n1 [Example 38, 1-{1-(cyclohexylmethyl)-5-[(2,5-dichlorobenzyl)oxy]-1H-pyrazol-3-yl}-N-methylmethanamine] | 6.2 nM | 
CNCc1cc(OCc2ccc(F)cc2Cl)n(C(C)C2CCCCC2)n1 (centres unmarked) [Example 301, 1-{5-[(2-chloro-4-fluorobenzyl)oxy]-1-(1-cyclohexylethyl)-1H-pyrazol-3-yl}-N-methylmethanamine] | 4.6 nM | 
CNCc1cc(OCc2cc(Cl)ccc2F)n(CC2CC3CCC2C3)n1 (centres unmarked) [Example 118, 1-{1-(bicyclo[2.2.1]hept-2-ylmethyl)-5-[(5-chloro-2-fluorobenzyl)oxy]-1H-pyrazol-3-yl}-N-methylmethanamine] | 2.1 nM | 
CNCc1cc(OCc2ccccc2)n(C(C)C2CCCCC2)n1 (centres unmarked) [Example 292, 1-[5-(benzyloxy)-1-(1-cyclohexylethyl)-1H-pyrazol-3-yl]-N-methylmethanamine] | 3.8 nM | 
CNCc1cc(OCc2ccc(F)cc2F)n(C(C)C2CCCCC2)n1 (centres unmarked) [Example 300, 1-{1-(1-cyclohexylethyl)-5-[(2,4-difluorobenzyl)oxy]-1H-pyrazol-3-yl}-N-methylmethanamine] | 3.3 nM | 
